Experimental findings from paper PMC5678581 (BMC Biology, 2017) are described below.

The chains behind the UniProt entries cited, without tags or fusion partners. Where a name states a change or a piece, a line headed by the entry shows the natural chain unless it says otherwise. A line that says so, or that is headed by a name, gives the form on record, which may keep a tag or linker. Residues count along the entry.
UniProt Q14258: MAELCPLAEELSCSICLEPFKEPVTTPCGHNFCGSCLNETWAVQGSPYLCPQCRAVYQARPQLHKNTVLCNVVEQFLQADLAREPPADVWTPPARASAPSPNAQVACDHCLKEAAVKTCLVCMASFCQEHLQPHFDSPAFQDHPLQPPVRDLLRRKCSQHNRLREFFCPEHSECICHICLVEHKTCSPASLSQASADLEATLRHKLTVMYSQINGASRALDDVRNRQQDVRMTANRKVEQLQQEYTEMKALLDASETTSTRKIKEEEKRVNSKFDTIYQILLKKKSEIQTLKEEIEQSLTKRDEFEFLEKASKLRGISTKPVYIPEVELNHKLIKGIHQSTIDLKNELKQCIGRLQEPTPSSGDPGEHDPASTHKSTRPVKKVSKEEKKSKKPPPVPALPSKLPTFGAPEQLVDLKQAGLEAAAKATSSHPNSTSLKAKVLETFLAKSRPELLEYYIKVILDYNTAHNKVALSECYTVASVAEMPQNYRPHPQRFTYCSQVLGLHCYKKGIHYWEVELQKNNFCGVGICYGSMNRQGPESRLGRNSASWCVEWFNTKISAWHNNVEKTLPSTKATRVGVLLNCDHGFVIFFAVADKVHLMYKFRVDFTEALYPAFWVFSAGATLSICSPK
T7-tagged TRIM25ΔRBD (lacking residues 470–508) (Q14258, form named): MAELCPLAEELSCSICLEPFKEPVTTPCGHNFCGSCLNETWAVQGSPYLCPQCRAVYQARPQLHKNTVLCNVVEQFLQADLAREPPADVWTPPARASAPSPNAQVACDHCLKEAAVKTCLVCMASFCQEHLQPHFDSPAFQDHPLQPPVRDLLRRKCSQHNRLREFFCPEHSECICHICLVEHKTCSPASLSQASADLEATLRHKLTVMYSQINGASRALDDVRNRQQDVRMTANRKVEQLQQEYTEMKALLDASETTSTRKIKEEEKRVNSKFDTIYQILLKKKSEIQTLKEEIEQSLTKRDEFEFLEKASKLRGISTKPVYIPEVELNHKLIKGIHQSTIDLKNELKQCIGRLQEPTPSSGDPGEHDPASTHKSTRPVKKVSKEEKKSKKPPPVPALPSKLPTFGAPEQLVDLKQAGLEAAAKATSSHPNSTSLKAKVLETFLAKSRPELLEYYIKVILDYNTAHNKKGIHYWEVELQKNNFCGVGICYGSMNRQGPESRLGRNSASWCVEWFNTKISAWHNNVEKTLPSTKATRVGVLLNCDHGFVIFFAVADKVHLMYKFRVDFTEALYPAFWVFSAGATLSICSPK
UniProt P17844: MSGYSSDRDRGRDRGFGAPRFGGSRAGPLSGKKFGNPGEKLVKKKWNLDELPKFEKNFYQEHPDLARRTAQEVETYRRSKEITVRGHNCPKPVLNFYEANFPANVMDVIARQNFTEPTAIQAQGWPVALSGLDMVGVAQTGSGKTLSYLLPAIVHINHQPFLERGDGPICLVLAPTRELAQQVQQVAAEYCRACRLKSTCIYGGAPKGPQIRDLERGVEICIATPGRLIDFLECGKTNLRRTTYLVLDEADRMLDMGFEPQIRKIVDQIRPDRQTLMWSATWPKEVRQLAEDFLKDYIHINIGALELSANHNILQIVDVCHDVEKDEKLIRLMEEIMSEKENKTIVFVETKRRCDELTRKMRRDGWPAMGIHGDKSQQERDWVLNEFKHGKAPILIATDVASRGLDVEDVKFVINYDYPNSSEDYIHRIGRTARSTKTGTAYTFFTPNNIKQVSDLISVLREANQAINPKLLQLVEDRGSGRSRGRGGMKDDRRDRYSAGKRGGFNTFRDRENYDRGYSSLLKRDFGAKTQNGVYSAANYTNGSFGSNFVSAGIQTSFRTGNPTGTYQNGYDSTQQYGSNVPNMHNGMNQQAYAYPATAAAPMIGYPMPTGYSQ
UniProt Q7Z2W4: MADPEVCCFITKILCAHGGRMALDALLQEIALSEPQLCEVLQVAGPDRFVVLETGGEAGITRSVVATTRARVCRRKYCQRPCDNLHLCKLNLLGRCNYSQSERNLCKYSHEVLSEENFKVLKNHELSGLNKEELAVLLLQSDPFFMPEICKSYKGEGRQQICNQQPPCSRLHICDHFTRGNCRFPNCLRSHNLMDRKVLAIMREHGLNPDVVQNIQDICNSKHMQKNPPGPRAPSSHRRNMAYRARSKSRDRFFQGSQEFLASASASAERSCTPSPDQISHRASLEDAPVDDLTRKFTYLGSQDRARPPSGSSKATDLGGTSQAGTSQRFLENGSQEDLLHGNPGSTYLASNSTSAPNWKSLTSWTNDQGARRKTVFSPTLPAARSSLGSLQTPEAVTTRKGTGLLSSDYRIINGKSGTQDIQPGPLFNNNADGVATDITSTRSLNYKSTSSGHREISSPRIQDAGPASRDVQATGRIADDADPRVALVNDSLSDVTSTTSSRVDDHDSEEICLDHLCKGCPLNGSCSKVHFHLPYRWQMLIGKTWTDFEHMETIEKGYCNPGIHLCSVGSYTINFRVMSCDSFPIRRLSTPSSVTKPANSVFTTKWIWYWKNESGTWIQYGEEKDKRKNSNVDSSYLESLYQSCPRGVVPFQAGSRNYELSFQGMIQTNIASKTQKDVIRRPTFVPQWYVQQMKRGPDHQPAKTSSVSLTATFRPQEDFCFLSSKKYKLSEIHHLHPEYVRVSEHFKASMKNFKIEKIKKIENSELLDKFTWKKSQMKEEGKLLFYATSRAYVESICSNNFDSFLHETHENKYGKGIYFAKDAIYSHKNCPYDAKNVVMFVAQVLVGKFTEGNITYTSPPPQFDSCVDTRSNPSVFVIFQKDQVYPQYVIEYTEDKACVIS
Zinc Finger Antiviral Protein (ZAP), shorter isoform (Q7Z2W4-2, form named): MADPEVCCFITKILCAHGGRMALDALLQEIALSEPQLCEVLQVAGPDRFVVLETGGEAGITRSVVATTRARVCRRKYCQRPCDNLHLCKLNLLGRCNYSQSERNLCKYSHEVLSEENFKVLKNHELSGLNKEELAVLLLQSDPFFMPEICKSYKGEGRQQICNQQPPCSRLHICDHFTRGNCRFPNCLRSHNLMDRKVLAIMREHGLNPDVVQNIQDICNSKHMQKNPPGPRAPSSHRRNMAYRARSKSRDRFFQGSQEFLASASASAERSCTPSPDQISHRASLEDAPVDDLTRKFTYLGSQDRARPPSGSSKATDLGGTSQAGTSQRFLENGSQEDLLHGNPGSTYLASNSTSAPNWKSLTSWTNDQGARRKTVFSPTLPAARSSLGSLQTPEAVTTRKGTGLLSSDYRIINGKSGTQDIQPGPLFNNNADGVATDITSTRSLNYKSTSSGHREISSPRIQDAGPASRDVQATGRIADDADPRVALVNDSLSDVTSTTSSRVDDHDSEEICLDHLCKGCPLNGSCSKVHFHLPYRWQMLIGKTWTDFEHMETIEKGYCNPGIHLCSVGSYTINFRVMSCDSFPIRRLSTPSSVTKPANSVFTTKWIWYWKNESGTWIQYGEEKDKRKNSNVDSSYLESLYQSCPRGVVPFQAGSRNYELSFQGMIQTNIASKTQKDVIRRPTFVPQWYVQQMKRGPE

The target in assay [1] is T7-tagged TRIM25 (wild type) (human) (UniProt Q14258). Put plainly: co-IP; extracts of HeLa cells overexpressing T7-tagged TRIM25 constructs, endogenous RNAs present; anti-T7 antibody on protein A agarose; western blot against ZAP and DDX5.
Assay [2] shares this target. The assay can be described thus: co-IP; as a3 but in the presence of RNases A and T1; anti-T7 antibody on protein A agarose; western blot against ZAP and DDX5. (In general: Immunoblotting shows a protein as a band on a membrane.)
In assay [3] the target is T7-tagged TRIM25ΔRBD (lacking residues 470–508) (human) (UniProt Q14258). Put plainly: co-IP; extracts of HeLa TRIM25 KO cells co-overexpressing T7-tagged and EGFP-tagged TRIM25; anti-T7 antibody on protein A agarose; western blot with anti-TRIM25 and anti-T7 antibodies.
For assay [4] the target is unchanged. The assay can be described thus: co-IP; extracts of HeLa cells overexpressing T7-tagged TRIM25 constructs, endogenous RNAs present; anti-T7 antibody on protein A agarose; western blot against ZAP and DDX5.

No constants are given. Whether binding was seen depends on the method and setting. In cells and extracts the contact can be indirect. Some results given as binding are weak or reduced against the parent protein; the word gives no strength.

Turning to DDX5 (from UniProt P17844 1-614), the binding result in assay [1] and in assay [2] was “binds” in each case.

Take “EGFP-tagged TRIM25 (wild type) (from UniProt Q14258 1-630)”: the binding result in assay [3] is recorded as “binds”.

As for “Zinc Finger Antiviral Protein (ZAP), longer isoform (from UniProt Q7Z2W4 1-902)”, the binding entry in assay [4] is “no binding”.

For “Zinc Finger Antiviral Protein (ZAP), shorter isoform (from UniProt Q7Z2W4-2 1-699)”, in assay [4], the binding entry is on record as “no binding”.
